# Measurements published in the supplement of paper PMC8728848.
# Some of the results follow.
# What was measured:
# Experiment in all cases: glycan array binding signal (z-score within array); higher = stronger binding
# Conditions in all cases: glycan notation: IUPAC condensed, linker removed
# [1] = target: Gal(b1-3)[Fuc(a1-4)]GlcNAc
# Summary of the method: (§1)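 Glycan array binding is given as a within-array Z-score, which can be read as non-binding when negative. The arrays, 3228 of them, came from the Consortium for Functional Glycomics database and were retained only where the protein sequence was available. Z-scores were averaged across arrays of the same protein sequence at different concentrations or buffers and across linkers.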
# [2] = target: Gal(b1-3)[Fuc(a1-4)]GlcNAc(b1-2)Man(a1-3)[Gal(b1-3)[Fuc(a1-4)]GlcNAc(b1-2)Man(a1-6)]Man(b1-4)GlcNAc(b1-4)GlcNAc
# Summary of the method: as §1
# [3] = target: Gal(b1-3)[Fuc(a1-4)]GlcNAc(b1-2)Man(a1-3)[Gal(b1-3)[Fuc(a1-4)]GlcNAc(b1-2)Man(a1-6)]Man(b1-4)GlcNAc(b1-4)[Fuc(a1-6)]GlcNAc
# Summary of the method: as §1
# [4] = target: Gal(b1-3)[Fuc(a1-4)]GlcNAc(b1-3)Gal(b1-3)[Fuc(a1-4)]GlcNAc
# Summary of the method: as §1
# [5] = target: Gal(b1-3)[Fuc(a1-4)]GlcNAc(b1-3)Gal(b1-4)GlcNAc
# Summary of the method: as §1
# [6] = target: Gal(b1-3)[Fuc(a1-4)]GlcNAc(b1-3)Gal(b1-4)[Fuc(a1-3)]GlcNAc
# Summary of the method: as §1
# [7] = target: Gal(b1-3)[GlcNAc(b1-6)]GalNAc
# Summary of the method: as §1
# [8] = target: Gal(b1-3)[Neu5Ac(a2-6)]GalNAc
# Summary of the method: as §1
# [9] = target: Gal(b1-3)[Neu5Ac(a2-6)]GlcNAc(b1-6)Gal(b1-4)Glc
# Summary of the method: as §1
# [10] = target: Gal(b1-3)[Neu5Ac(b2-6)]GalNAc
# Summary of the method: as §1
# [11] = target: Gal(b1-4)GalNAc(a1-3)[Fuc(a1-2)]Gal(b1-4)GlcNAc
# Summary of the method: as §1
# [12] = target: Gal(b1-4)GalNAc(b1-3)[Fuc(a1-2)]Gal(b1-4)GlcNAc
# Summary of the method: as §1
# Gal(b1-4)Glc = target: Gal(b1-4)Glc
# Summary of the method: as §1
# Gal(b1-4)Glc6S = target: Gal(b1-4)Glc6S
# Summary of the method: as §1
# Gal(b1-4)GlcNAc = target: Gal(b1-4)GlcNAc
# Summary of the method: as §1
# [13] = target: Gal(b1-4)GlcNAc(a1-6)Gal(b1-4)GlcNAc
# Summary of the method: as §1
# [14] = target: Gal(b1-4)GlcNAc(b1-2)Man(a1-3)Man(b1-4)GlcNAc(b1-4)GlcNAc
# Summary of the method: as §1
# [15] = target: Gal(b1-4)GlcNAc(b1-2)Man(a1-3)[Gal(b1-4)GlcNAc(b1-2)Man(a1-6)]Man(b1-4)GlcNAc(b1-4)GlcNAc
# Summary of the method: as §1
# [16] = target: Gal(b1-4)GlcNAc(b1-2)Man(a1-3)[Gal(b1-4)GlcNAc(b1-2)Man(a1-6)]Man(b1-4)GlcNAc(b1-4)[Fuc(a1-6)]GlcNAc
# Summary of the method: as §1
# [17] = target: Gal(b1-4)GlcNAc(b1-2)Man(a1-3)[GlcNAc(b1-2)Man(a1-6)]Man(b1-4)GlcNAc(b1-4)GlcNAc
# Summary of the method: as §1
# [18] = target: Gal(b1-4)GlcNAc(b1-2)Man(a1-3)[Man(a1-6)]Man(b1-4)GlcNAc(b1-4)GlcNAc
# Summary of the method: as §1
# [19] = target: Gal(b1-4)GlcNAc(b1-2)Man(a1-6)Man(b1-4)GlcNAc(b1-4)GlcNAc
# Summary of the method: as §1
# [20] = target: Gal(b1-4)GlcNAc(b1-2)Man(a1-6)[GlcNAc(b1-2)Man(a1-3)]Man(b1-4)GlcNAc(b1-4)GlcNAc
# Summary of the method: as §1
# [21] = target: Gal(b1-4)GlcNAc(b1-2)Man(a1-6)[Man(a1-3)]Man(b1-4)GlcNAc(b1-4)GlcNAc
# Summary of the method: as §1
# [22] = target: Gal(b1-4)GlcNAc(b1-2)[Gal(b1-4)GlcNAc(b1-4)]Man(a1-3)[Gal(b1-4)GlcNAc(b1-2)Man(a1-6)]Man(b1-4)GlcNAc(b1-4)GlcNAc
# Summary of the method: as §1
# [23] = target: Gal(b1-4)GlcNAc(b1-2)[Gal(b1-4)GlcNAc(b1-4)]Man(a1-3)[Gal(b1-4)GlcNAc(b1-2)[Gal(b1-4)GlcNAc(b1-6)]Man(a1-6)]Man(b1-4)GlcNAc(b1-4)GlcNAc
# Summary of the method: as §1
# [24] = target: Gal(b1-4)GlcNAc(b1-3)Gal(b1-3)GlcNAc
# Summary of the method: as §1
# [25] = target: Gal(b1-4)GlcNAc(b1-3)Gal(b1-4)Glc
# Summary of the method: as §1
# [26] = target: Gal(b1-4)GlcNAc(b1-3)Gal(b1-4)GlcNAc
# Summary of the method: as §1
# [27] = target: Gal(b1-4)GlcNAc(b1-3)Gal(b1-4)GlcNAc(b1-3)Gal(b1-4)GlcNAc
# Summary of the method: as §1
# [28] = target: Gal(b1-4)GlcNAc(b1-3)Gal(b1-4)[Fuc(a1-3)]GlcNAc(b1-3)Gal(b1-4)[Fuc(a1-3)]GlcNAc
# Summary of the method: as §1
# [29] = target: Gal(b1-4)GlcNAc(b1-3)GalNAc
# Summary of the method: as §1
# [30] = target: Gal(b1-4)GlcNAc(b1-3)[Gal(b1-4)GlcNAc(b1-6)]Gal(b1-4)GlcNAc
# Summary of the method: as §1
# [31] = target: Gal(b1-4)GlcNAc(b1-3)[Gal(b1-4)GlcNAc(b1-6)]GalNAc
# Summary of the method: as §1
# [32] = target: Gal(b1-4)GlcNAc(b1-3)[GlcNAc(b1-6)]Gal(b1-4)GlcNAc
# Summary of the method: as §1
# [33] = target: Gal(b1-4)GlcNAc(b1-6)Gal(b1-4)GlcNAc
# Summary of the method: as §1
# [34] = target: Gal(b1-4)GlcNAc(b1-6)GalNAc
# Summary of the method: as §1
# [35] = target: Gal(b1-4)GlcNAc(b1-6)[Gal(b1-3)]GalNAc
# Summary of the method: as §1
# Gal3S(b1-3)GalNAc = target: Gal3S(b1-3)GalNAc
# Summary of the method: as §1
# Gal3S(b1-3)GlcNAc = target: Gal3S(b1-3)GlcNAc
# Summary of the method: as §1
# [36] = target: Gal3S(b1-3)[Fuc(a1-4)]GlcNAc
# Summary of the method: as §1
# Gal3S(b1-4)Glc = target: Gal3S(b1-4)Glc
# Summary of the method: as §1
# Gal3S(b1-4)Glc6S = target: Gal3S(b1-4)Glc6S
# Summary of the method: as §1
# Gal3S(b1-4)GlcNAc = target: Gal3S(b1-4)GlcNAc
# Summary of the method: as §1
# Gal3S(b1-4)GlcNAc6S = target: Gal3S(b1-4)GlcNAc6S
# Summary of the method: as §1
binder,measurement,setting,value
Gal 1 (Canis lupus) (protein) MACGLVASNLSLKPGQCLRVQCEVVPEAKSFVLNLGKDGDNLCLHFNPRFEAHGDVNTIVCNSKDGGAWGEELRESAFPFQPGTVTEVCISFDQADLTIKLPDGYTFKFPNRLNLEAISYLAADGDMKIKCLAFD,glycan array binding signal (z-score),[1],-0.299
same,glycan array binding signal (z-score),[2],-0.179
same,glycan array binding signal (z-score),[3],-0.309
same,glycan array binding signal (z-score),[4],-0.331
same,glycan array binding signal (z-score),[5],0.34
same,glycan array binding signal (z-score),[6],-0.314
same,glycan array binding signal (z-score),[7],-0.334
same,glycan array binding signal (z-score),[8],-0.316
same,glycan array binding signal (z-score),[9],-0.326
same,glycan array binding signal (z-score),[10],-0.315
same,glycan array binding signal (z-score),[11],-0.327
same,glycan array binding signal (z-score),[12],-0.305
same,glycan array binding signal (z-score),Gal(b1-4)Glc,-0.289
same,glycan array binding signal (z-score),Gal(b1-4)Glc6S,-0.051
same,glycan array binding signal (z-score),Gal(b1-4)GlcNAc,0.021
same,glycan array binding signal (z-score),[13],2.97
same,glycan array binding signal (z-score),[14],1.75
same,glycan array binding signal (z-score),[15],2.48
same,glycan array binding signal (z-score),[16],1.64
same,glycan array binding signal (z-score),[17],1.24
same,glycan array binding signal (z-score),[18],1.45
same,glycan array binding signal (z-score),[19],0.574
same,glycan array binding signal (z-score),[20],0.478
same,glycan array binding signal (z-score),[21],0.159
same,glycan array binding signal (z-score),[22],5.5
same,glycan array binding signal (z-score),[23],6.78
same,glycan array binding signal (z-score),[24],0.232
same,glycan array binding signal (z-score),[25],0.621
same,glycan array binding signal (z-score),[26],1.18
same,glycan array binding signal (z-score),[27],1.8
same,glycan array binding signal (z-score),[28],0.541
same,glycan array binding signal (z-score),[29],-0.018
same,glycan array binding signal (z-score),[30],1.75
same,glycan array binding signal (z-score),[31],1.94
same,glycan array binding signal (z-score),[32],1.3
same,glycan array binding signal (z-score),[33],0.041
same,glycan array binding signal (z-score),[34],-0.121
same,glycan array binding signal (z-score),[35],-0.016
same,glycan array binding signal (z-score),Gal3S(b1-3)GalNAc,-0.327
same,glycan array binding signal (z-score),Gal3S(b1-3)GlcNAc,3.33
same,glycan array binding signal (z-score),[36],-0.317
same,glycan array binding signal (z-score),Gal3S(b1-4)Glc,0.38
same,glycan array binding signal (z-score),Gal3S(b1-4)Glc6S,1.75
same,glycan array binding signal (z-score),Gal3S(b1-4)GlcNAc,2.51
same,glycan array binding signal (z-score),Gal3S(b1-4)GlcNAc6S,4.69
